Test results as given in the supplement of paper PMC10369915.
Some of the results follow. Rule as the data show it: active = 3.2 or more and inactive = the rest. The signal is at background level for most entries.

B1: KRTAP20-2_Y15_YF (peptide)
chain: GLRFGYGVLGG
B2: KRT24_Y120_A115T_YF (peptide)
chain: TTGGFYSFGGG
B3: L1CAM_Y420_V421D (peptide)
chain: ANAYIYDVQLP
B4: KRT73_Y325_K328T (peptide)
chain: EAEALYQTTFQ
B5: KRT17_Y384_L388R (peptide)
chain: QEIATYRRLRE
B6: KRT18_Y129 (peptide)
chain: RDWSHYFKIIE
B7: L1CAM_Y418_YF (peptide)
chain: LLANAYIFVVQ
B8: KRT8_Y427 (peptide)
chain: GLSSAYGGLTS
B9: KRTAP20-2_Y13 (peptide)
chain: YGGLRYGYGVL
B10: KRT75_Y342_E337K (peptide)
chain: KAESWYQTKYE
B11: L1CAM_Y418_V421D_YF (peptide)
chain: LLANAYIFDVQ
B12: KRTAP20-2_Y13_V17G_YF (peptide)
chain: FGGLRYGFGGL
B13: KRT8_Y419 (peptide)
chain: KTTSGYAGGLS
B14: KRTAP20-2_Y15 (peptide)
chain: GLRYGYGVLGG
B15: KRTAP20-2_Y13_V17G (peptide)
chain: YGGLRYGYGGL
B16: KRT14_Y415_L418Q (peptide)
chain: QEIATYRRQLE
B17: KRT14_Y415_Y415H (peptide)
chain: QEIATHRRLLE
B18: KRT19_Y65_A60G (peptide)
chain: GYGGGYGGVLT

Molecular target: SHP2 C-SH2 domain E139D
Assay: enrichment score (SH2-bound / input frequency) (ratio); bacterial display of known human phosphotyrosine sites (pTyr-Var adds point mutants) read by sequencing; higher = stronger binding; tyrosines were phosphorylated by kinases first
Settings: peptide library: pTyr-Var
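Also: displayed peptides selected on beads carrying the immobilized SH2 domain, with library peptides lacking any tyrosine serving as negative controls.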

Enrichment score, inactive:
B1 1.03
B2 0.856
B3 0.762
B4 0.697
B5 0.215
B6 1.07
B7 0.914
B8 0.495
B9 0.789
B10 0.876
B11 1.48
B12 1.16
B13 0.586
B14 1.06
B15 1
B16 0.82
B17 0.526
B18 1.02

Molecular target: SHP2 C-SH2 domain wild-type
Assay: as above
Settings: peptide library: pTyr-Var

Enrichment score, inactive:
B1 1.08
B2 0.874
B3 1.38
B4 0.699
B5 0.173
B6 1.25
B7 1.25
B8 0.537
B9 0.852
B10 0.707
B11 1.22
B12 0.936
B13 0.67
B14 0.923
B15 0.841
B16 0.8
B17 0.429
B18 0.874

Molecular target: SHP2 N-SH2 domain L43F
Assay: as above
Settings: peptide library: pTyr-Var

Enrichment score, inactive:
B1 0.994
B2 1.15
B3 0.686
B4 0.784
B5 0.218
B6 0.741
B7 1.31
B8 0.517
B9 0.794
B10 0.677
B11 1.25
B12 0.812
B13 0.747
B14 0.878
B15 0.853
B16 0.762
B17 0.593
B18 0.911

Molecular target: SHP2 N-SH2 domain T42A
Assay: as above
Settings: peptide library: pTyr-Var

Enrichment score, inactive:
B1 0.924
B2 0.693
B3 0.691
B4 0.677
B5 0.21
B6 0.862
B7 0.828
B8 0.469
B9 0.663
B10 0.743
B11 1
B12 0.784
B13 0.555
B14 0.841
B15 0.757
B16 0.614
B17 0.513
B18 0.819

Molecular target: SHP2 N-SH2 domain T52S
Assay: as above
Settings: peptide library: pTyr-Var

Enrichment score, inactive:
B1 1.03
B2 1.02
B3 1.23
B4 0.904
B5 0.215
B6 0.865
B7 0.913
B8 0.463
B9 0.787
B10 0.723
B11 1.36
B12 0.815
B13 0.699
B14 0.9
B15 0.8
B16 0.495
B17 0.446
B18 0.801

Molecular target: SHP2 N-SH2 domain wild-type
Assay: as above
Settings: peptide library: pTyr-Var

Enrichment score, inactive:
B1 0.891
B2 0.785
B3 0.865
B4 0.851
B5 0.322
B6 1.16
B7 1.64
B8 0.519
B9 0.933
B10 0.822
B11 1.49
B12 1.29
B13 0.794
B14 0.945
B15 0.904
B16 0.595
B17 0.532
B18 0.94
